Source: the supplement of paper PMC12632987
Over roughly 1,800 sequences, “median log2 fold change of GCK-ALFA target abundance (FLAG IP / Myc IP barcode read proportion)” has its median near 0.14; the lowest 2% begin near -0.84. The list shows a part of the results.

T1: TRAF2, Q12933
T1 chain: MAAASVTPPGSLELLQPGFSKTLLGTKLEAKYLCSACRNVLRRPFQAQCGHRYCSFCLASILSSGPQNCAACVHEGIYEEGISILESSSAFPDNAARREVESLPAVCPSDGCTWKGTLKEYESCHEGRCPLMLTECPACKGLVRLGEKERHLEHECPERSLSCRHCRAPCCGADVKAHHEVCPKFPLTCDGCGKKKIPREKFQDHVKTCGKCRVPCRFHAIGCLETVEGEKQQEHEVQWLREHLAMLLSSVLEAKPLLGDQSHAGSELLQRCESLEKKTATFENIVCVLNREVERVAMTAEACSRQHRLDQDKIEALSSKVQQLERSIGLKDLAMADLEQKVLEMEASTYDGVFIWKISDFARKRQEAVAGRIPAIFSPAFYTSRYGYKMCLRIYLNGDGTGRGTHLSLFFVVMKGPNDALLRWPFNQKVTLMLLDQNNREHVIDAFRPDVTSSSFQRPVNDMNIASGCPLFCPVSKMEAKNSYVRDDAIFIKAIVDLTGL

B1: traf2_out_11_155_699 (protein)
chain: EKKRELANELVDKMMEIEDEAKARLDAIAAEAAAAHPEHAAEIEAARAAAARFSATTYAGILAALFRRLGLDEYAARVEALREEAQKRKNEVYKEIEAKM
B2: traf2_out_17_162_1543 (protein)
chain: AALEARLAALEARLERLEALRRELEALVPKLPELSKEELTDLLVEASEARREALRLAEEIAALKDEIGEERATALRERALEVAEELQRIANLIYKELEKK
B3: traf2_out_17_178_1748 (protein)
chain: NEEELKKIINEKNNEIADIAEKLAEEILKLAKEDPSISPETLALIEEARRNGSHNTAVALFLEASKNEETKKKVEELHKKASEEMNKLAKEREEAIEKYK
B4: traf2_out_17_162_1524 (protein)
chain: SATEARAAALEAELAALEKELAALKAQLPKLPEMSKEELSDLLVKASEARRRALALAERIRELAAELGEERAQALRDRAEAIAAEFQKIAQAAYKEYEKK
B5: traf2_out_13_95_1120 (protein)
chain: SKEVAEKIMEIADEMEDKRLAILEELLKIAKEKGIAEEEIQAIIDFAKHGTINEVIHRLKELAKKYPELKEEFDKAIAELEEIKREAGRKVAEILKEEKE
B6: traf2_out_11_155_748 (protein)
chain: EERRKLLQEMNDKITELFDKAREEALKIAEEAAKKHPEHAEEIKKKIEETKGFSYRSFILSMIELFEELGLEEEAKKLKELLEKTQKEANKIVQETEKKL
B7: traf2_out_1_27_997 (protein)
chain: SDEELNERLRELDKKIASADEEEALELVREGMRYFIEIGLGDAEIFAIIAVSSVSDEELAERILEVIREVMKEEGVSEEDIERIIKRARNNYERLKKALS
B8: traf2_out_20_3_2150 (protein)
chain: EELKKELEKELKKAEEILKEAAKLADEETAARLKELLERLKASKELSYSDQLVVVSEIRREVLLLAQEAKAAGKEELAKLLEKAAEELNKAANLLMKIIE
B9: traf2_out_18_167_1876 (protein)
chain: SEELKKKLEEASDELVELSTIRRWLRLALEALKESREKALAVLEAALAELPDSEVLREALEVARTKSDEELRRFLEEKIEELQKKANEKYKEYEELRKKL
B10: traf2_out_20_3_2099 (protein)
chain: KELEEEYEKELEKAIKLLEEAAKLADPETAKELEELKKRVEESKELDYTDRLVELSEVKREVLLLAQKAKAEGKEELAKVLEEAADALNKAMNLLYKIIE
B11: traf2_out_15_180_1315 (protein)
chain: MTEEELKKRIELASEVADKIDDKLKELIAANPELTEEEKQALRTAARSLRTLLLNGEEAEAEEALAQAKARLSPKAAAVLEELAAFIRKEVAAMKEKLAA
B12: traf2_out_12_50_983 (protein)
chain: SEEEEEEEEEEEERERILAMADRAEALVDAHRGDPEAAVAAIIERLRSGEISIEEAWIMRSLLARAMRREGLPDERILALHERLEAAILEREEELDELEE
B13: traf2_out_12_187_962 (protein)
chain: SVEEELLEAAKAGVKRALKALEEAAPKDERFKELLKKLKELEKLYEKDPSIASDLLVAASAILRAVRLFEAGLPQAEIDAAIAEAQKILDEALKEAEKRQ
B14: traf2_out_6_3_2505 (protein)
chain: EEEEERRRNEEAFEELAEMSIETLKTALQTELDRLKALVADPNASESDVLAHASAANLLLEVLKKNAEKNPETKEETEKFIKEAEEEREKLMAEWEAKRA
B15: traf2_out_20_3_2126 (protein)
chain: EELEKQLEKELERALKLLKEAAEKSDPETAKRLKELIKRLKESRSLSPSDRLVVVSEVRREVRRLAEEARRRGDEELAKILEEAADELNRAAQLLYEIEK
B16: traf2_out_13_95_1051 (protein)
chain: SKETAEKINEVADEMEDKALELLDKAQKEVADDPEASAVMTEAKRLAEKKGISEAIHLLKEAQKAMPEHKELFEKLIKELEELRREAGRKVAEILKEEKE
B17: traf2_out_3_77_2278 (protein)
chain: AEAEEEARERLDEATTEAIASLFVLAINRPEKAEKYREMAARLHRAANVAKEAGAEEEFLPLVEALLEAAKALNDGDEEAEKKIEELLAEIEARAAALRA
B18: traf2_out_14_17_1294 (protein)
chain: EIIEELKEIEERARELAEKLPELALELGRLLRLARSALVLAEMYEEDPSYKPELIEALNNLEKETKEVAKKVEPISAEAKKELEEMEKRARKILEKVKAE
B19: traf2_out_13_95_1224 (protein)
chain: SAEANEKLRQVSNDMLDKAEAIIDELEAKLAPYPEMAPAMAAIRAALRNNGIRQAIAVLRQAAKEHPEVAADLNAAAEQLEAVRRDAGKKVAEILKEEEE
B20: traf2_out_18_167_1864 (protein)
chain: MEELKKEYEKKTDELVRVSDIRRALREALLALEESREKAKALLEKKLEEHPDSEVLKEALEVAETKSPEEFKAFLEEKIEELQKEANKLYKELEKLKKEM
B21: traf2_out_15_180_1318 (protein)
chain: MTEEELKKRIELANEVSDKVQDKLDALLAANPSLSPEEKAALRALARALTTLYLNGEWAEADAALARAEARLSPEAAAVARELAAFARKVVEEAKKKLAE
B22: traf2_out_20_3_2092 (protein)
chain: EELLKELEKALEEAEKLIKEAIKLADEETAKKLEKLLKRLKEARELPLDEQLVALSEVRRELLELAEKARKEGKEELAKILEEAAEKVNRAMNLAYKIIE
B23: traf2_out_17_162_1624 (protein)
chain: SPLEERLRELERRLEELEKKLEELTKKAENIDKLSKEELTDLLVEASEARREARELAEEIRRLREEENDPRLDELLRRAEELAEEFQRIANLFYNKLLEL
B24: traf2_out_17_178_1731 (protein)
chain: SREEILKKISEKADELLDTNKEAMDELRKIAEKEGVLTPELREKLDAVHRNANLYALEEVFDEVIEKTKSKEEVEKLKEETSKKMRELNKEIQALVEELE
B25: traf2_out_1_27_988 (protein)
chain: SEEEFTALVKEASRKIAEATPEEAIKIAKETLRELHAAGNPDIGLAAVVLVTSVKTREDAEKLIEAIAETLRELGVSEEEIARIRRQMETAVELLFKALE
B26: traf2_out_17_162_1484 (protein)
chain: AALEAELAALEAELAELKKKLEELEEKTKKLEEMSKEELTDLLVEASELRRRALELAERIAALAPLIGEERAGALRDEALAIAERLQRIANKIYKELEKK
B27: traf2_out_18_3_1915 (protein)
chain: SEEERKKISEKIDEIVDEATAKAREALKRGKEKYPEFKAEFERLEADLEAGAGPFGILEALAELFKEAGDEEEAEELEKFLREKRKEFQKLVDEYEKLLK
B28: traf2_out_6_166_2475 (protein)
chain: DEEILERIREVVKEFSKFSPEDIIEAFEILAEERDDERALMARQLASGVRQGQKAGLPVETILSAFADGMLALGVPAEDILELLEEALKIVKEIEKEKKE
B29: traf2_out_17_162_1643 (protein)
chain: GEFEKELKELEEELEELEKRVEELEEKTKTIKSYSKEELSDLIVEASEVKRRALELLQRIEKLKEKLPKEKYEELKERAEEIIRRAQRVANEFYKEREAK

Biological target: T1, TRAF2, Q12933
Experiment: median log2 fold change of GCK-ALFA target abundance (FLAG IP / Myc IP barcode read proportion) (log2 ratio); each designed protein is fused to an ALFA-tag nanobody in HEK293 cells to bring the named protein to FLAG-tagged glucokinase (GCK); Myc marks an untargeted standard; higher = target protein stabilised (more abundant)
Conditions: target protein: 3xFLAG-MCP-GCK-ALFA reporter; HEK293 landing pad (RPLP)
Procedure, shortened: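 HEK293 landing-pad cells received a recombined binder library fused to the ALFA nanobody and were induced with 2 μg mL^−1 doxycycline, then transfected with a plasmid encoding a FLAG-tagged target and a Myc-tagged standard. Lysates were collected after 48 h for anti-FLAG and anti-Myc immunoprecipitation, and the circular RNA barcodes were reverse transcribed, amplified and sequenced. Target abundance for each binder is the median log2 ratio of FLAG to Myc barcode read proportions. Barcodes had to reach a proportion of at least 10^−7 in both replicates, each binder needed at least 3 barcodes per replicate, a pseudocount of 10^−6 was applied, and the two replicates were pooled.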

Row | Binder | median log2 fold change
1 | B1 | -0.13
2 | B2 | 0.311
3 | B3 | 0.486
4 | B4 | 0.0763
5 | B5 | 0.107
6 | B6 | 0.302
7 | B7 | -0.0435
8 | B8 | 0.0615
9 | B9 | -0.674
10 | B10 | 0.0153
11 | B11 | 0.224
12 | B12 | -0.258
13 | B13 | 0.267
14 | B14 | 0.248
15 | B15 | -0.375
16 | B16 | 0.15
17 | B17 | 0.259
18 | B18 | 0.286
19 | B19 | 0.285
20 | B20 | 0.415
21 | B21 | -0.216
22 | B22 | 0.0786
23 | B23 | 0.219
24 | B24 | 0.639
25 | B25 | 0.261
26 | B26 | 0.262
27 | B27 | 0.219
28 | B28 | 0.00718
29 | B29 | 0.249
